Experimental data from PubChem BioAssay AID1963576 (National Center for Advancing Translational Sciences (NCATS), 2024).
Screen size: about 46,000 compounds; about 60 (0.1%) were called active. Another 3% or so got no clear call; they are omitted. Calls follow the shape of the dose curve; as a rule, active = well fitted inhibition curve with a large enough effect; inconclusive = small, poorly fitted or top-dose-only effect; inactive = no such curve, though single readings can be large or run the other way. Some of the results follow.

Test: Primary qHTS assay for Inhibitors of ovarian cancer metastasis using an organotypic tumor microenvironment (TME) model. Also: nearly all actives have a fitted effect of over 65% in size.
Settings: SKOV3ip1-GFP adhesion/invasion on 3D omental model, fluorescence; series mostly up to 45.8 µM; activity change, negative = inhibition: at the top concentration
Excerpt: PI: Ernst Lengyel MD., Ph.D. Department of Obstetrics and Gynecology, Section of Gynecologic Oncology University of Chicago Medicine, Chicago, Illinois. The tumor microenvironment (TME) is a key determinant of metastatic efficiency. We performed a quantitative high-throughput screen (qHTS) of diverse medicinal chemistry tractable scaffolds (44,420 compounds) and pharmacologically active small molecules (386 compounds) using a layered organotypic, robust assay representing the ovarian cancer metastatic TME. This 3D model contains primary human mesothelial cells, fibroblasts, and extracellular matrix, to which fluorescently labeled ovarian cancer cells are added. Initially, 100 compounds inhibiting ovarian cancer adhesion/invasion to the 3D model in a dose-dependent manner were identified. Of those, eight compounds were confirmed active in five high-grade serous ovarian cancer cell lines and were further validated in secondary in vitro and in vivo biological assays. […] Specifically, NCGC00117362 and PP-121 inhibited ovarian cancer adhesion, invasion, and proliferation, whereas milciclib inhibited ovarian cancer invasion and proliferation. […] To evaluate the clinical potential of NCGC00117362, structure - activity relationship studies were performed. […] The three compounds identified have promise as therapeutics for prevention and treatment of ovarian cancer metastasis.
PROTOCOL TABLE (as described by Inglese J, Shamu CE and Guy RK. 2007) SEQUENCE No. (e.g., 1, 2, 3, etc.); […] (e.g., Cells, Incubation, Reagent, etc.); VALUE; DESCRIPTION. 1; Cells; 4 uL; primary human omental fibroblast, black, clear bottom, low base, 1536-well Aurora assay plate. 2; Incubation; 48 hr; 37C. 3; Cells; 3 uL; 1,200 SKOV3ip1-GFP cells. 4; Compounds; 23nL; acoustic dispenser. 5; Incubation; 2 hr; room temperature. 6; Incubation; 16 hr; 37C. 7; Wash; 5 uL; 1x PBS. 8; Fixing; 5 uL; 4% paraformaldehyde (PFA). 9; Incubation; 15 min; room temperature 10; Wash, 5 uL; 1x PBS. 11; Detection; Fluorescence, excitation filter 488 nm, emission filter 509 nm. NOTES (numbers refer to Sequence numbers above) 1. For the 1,536-well format, 40 primary human omental fibroblasts and 400 mesothelial cells were seeded with 0.02 µg fibronectin and 0.02 µg collagen type I in 4 µL of growth media (2.3 mm2; Supplementary Fig. S1A). 2. Assay plates were incubated for 48 hours at 37 C. 3. After incubation, 1,200 SKOV3ip1-GFP were seeded in 3 µL of serum-free media (growth media minus FBS) on top of primary human omental cells. 4. Compounds or controls were added to each well immediately after the addition of the cancer cells. Compounds were screened in four doses (0.36-46 µmol/L), and the plates contained the positive control (Tomatine) in eight doses (0.035-75 µmol/L) and DMSO (equal volume controls) 5 - 6. The plates were incubated at room temperature for 2 hours and then at 37 degrees C for 16 hours. 7 - 10. Following incubation, the media were aspirated and each well washed with PBS (5 µL) and then fixed with 4% paraformaldehyde (PFA; 5 µL). After 15 minutes, the PFA solution was aspirated, PBS (5 µL) was added. 11. The number of GFP-labeled cells analyzed using a fluorescent cytometer TTP LabTech Acumen eX3 using 488 nm excitation filter and 509 nm emission filter. Data was normalized to the DMSO treated for negative and Tomatine treated wells for positive control. REFERENCES: Inglese J, Shamu CE and Guy RK, Reporting data from high throughput screening of small molecule libraries, Nature Chemical Biology, 2007, 3(8): 438-441. doi.org/10.1038/nchembio0807-438. Yasgar A, Shinn P, Jadhav A, Auld DS, Michael S, Zheng W, Austin CP, Inglese J and Simeonov A, Compound Management for Quantitative High-Throughput Screening. J. Assoc. Lab. Auto., 2008, 13: 79-89. doi: 10.1016/j.jala.2007.12.004.

Activity change, negative = inhibition, inactive:
COc1ccc(CNC(=O)c2cccn2-c2nnc(N3CCCC3)s2)c(OC)c1 -1.93%
COc1ccc(C2(CNC(=O)C(=O)Nc3ccccc3C)CCCC2)cc1OC 1.43%
CCCCN(CCCNC(=O)c1cc(Nc2ccccc2OC)nc2ccccc12)c1ccccc1 15.3%
Cc1ccc(S(=O)(=O)c2nc(-c3ccc(F)cc3)oc2N2CCN(c3ccccc3)CC2)cc1 -2.05%
CCN(CC)c1ccc(C2Nc3ccccc3-c3cc(C)nn32)cc1 (centres undefined) 5.88%
Nc1c(C(=O)Nc2ccccc2)sc2nc3c(cc12)CN(Cc1ccccc1)CC3 -1.31%
COc1ccc(NC(=O)c2oc3ccccc3c2NC(=O)C2CCCCC2)c(OC)c1 -12.1%
Cc1cccc(-n2c(=O)c3c4c(sc3n3c(C)nnc23)CCCC4)c1 4.55%
Clc1ccc(-n2c(Cc3ccccc3)nnc2SCc2nc(-c3cccs3)no2)cc1 4.1%
CCOC(=O)c1scc(-c2ccc(C)cc2)c1S(=O)(=O)Nc1cc(OC)ccc1OC -8.78%
CCCCN(C)C(=O)c1ccc2c(c1)N(Cc1cccc(F)c1)C(=O)c1ccccc1S2 -1.87%
CCc1cccc(C)c1NC(=O)C1CCCN1S(=O)(=O)c1cccc2nsnc12 (centres undefined) -0.364%
COC(=O)c1ccc(NC(=O)Cn2cnc3c2c(=O)n(C)c(=O)n3C)cc1 -15%
O=C(Cn1c(=O)c2cccn2c2ccccc21)NCc1ccccc1F -7.79%
CCn1c(=O)c(=O)n(CC)c2cc(S(=O)(=O)Nc3ccc(C)cc3)ccc21 -20.5%
Cc1ccc(C(=O)c2cn(Cc3ccccc3)c3nc(C)ccc3c2=O)cc1 3.53%
Cc1ccc(-n2ncc3c(NCCO)ncnc32)cc1Cl 0.469%
COc1ccc(-c2cc(C(=O)Nc3cccnc3)no2)cc1OC -24.3%
COC(=O)c1cc2oc3ccccc3c2n1CC(=O)Nc1ccc(C)c(F)c1 1.7%
COc1ccc(CNC(=O)Cc2ccc(NC(=O)N3CCSc4ncccc43)cc2)cc1OC 4.56%
Cc1cc(NC(=O)c2cc(-c3ccc(Cl)cc3)on2)n(-c2ccccc2)n1 -1.25%
Cc1cccc(C(=O)N2CCc3cc(CNC(=O)COc4ccc(Cl)cc4)ccc32)c1 -21.2%
CCOc1cccc(C2c3[nH]c4ccccc4c3CCN2C(=O)CSc2ccccc2)c1 (centres undefined) -18.3%
COc1ccc(S(=O)(=O)Nc2cccc(-c3ccc(N4CCC(C)CC4)nn3)c2)c(OC)c1 -1.84%
COc1cc(NC(=O)c2ccc3oc(=O)c(S(=O)(=O)c4ccccc4)cc3c2)cc(OC)c1 11%
COc1c(C)cc(Br)cc1C(=O)Nc1ccc(-c2nc3ncccc3o2)cc1 -28.2%
CCSc1nnc2c(n1)OC(c1cc(OC)c(OC)c(OC)c1)Nc1ccccc1-2 (centres undefined) 2.08%
CCOC(=O)c1c(C)[nH]c(C)c1S(=O)(=O)NCC(=O)Nc1ccc(C)c(N(C)C)c1 207%
CCOc1ccccc1NC(=O)c1ccc2c(c1)CCN2S(=O)(=O)c1ccc(C)cc1 -6.53%
COc1cc2c(=O)c(C(=O)c3ccc(C)c(C)c3)cn(Cc3ccc(F)cc3)c2cc1OC -3.88%
Cc1nc(SCC(=O)Nc2ccccc2C)cc(-c2ccccc2)n1 18%
Cc1ccccc1NC(=O)CSc1cn(CC(=O)N2CCCCCC2)c2ccccc12 15.8%
CCOC(=O)c1c(NC(=O)c2nc(SCC)ncc2Cl)sc2c1CCCC2 -3.34%
Cc1ccccc1Nc1c(-c2ccc(Cl)cc2)nc2c(C)cccn12 0.228%
CC(C)c1ccc(NC(=O)C2CCN(S(=O)(=O)c3cccc4nonc34)CC2)cc1 27.1%
CCC1CN(S(=O)(=O)c2cc(-c3cc(C)no3)ccc2C)c2cc(Cl)ccc2O1 (centres undefined) -8.35%
COc1cc(NS(=O)(=O)c2ccc(NC(=O)c3cccc(F)c3)cc2)nc(OC)n1 13.1%
O=C(Nc1ccc(C(=O)OCc2cc(=O)n3c4c(sc3n2)CCCC4)cc1)c1ccc(F)cc1 1.65%
COc1ccc(S(=O)Cc2ccc(C(=O)N3CCN(c4cccc(C)c4C)CC3)o2)cc1 (centres undefined) -5.19%
Cc1c(C(=O)NCc2ccc(Cl)cc2)sc2nc3n(c(=O)c12)CCCCC3 0.533%
CCc1cccc(C)c1NC(=O)CCS(=O)(=O)c1cc(Br)cc2c1N(C(=O)C1CC1)CC2 5.42%
COc1ccc(C(=O)NCC(c2cccnc2)N2CCN(c3ccccc3)CC2)cc1 (centres undefined) 7.19%
COc1cccc(Cn2c(=O)cc(C)c3c(C)nn(C)c32)c1 -3.95%
COc1cc(NC(=O)CN2C(=O)c3ccccc3Sc3ccc(C(=O)N4CCCC4)cc32)cc(OC)c1 -7.9%
CCOC(=O)c1ccccc1NC(=O)CN1CCCN(Cc2cc(C)ccc2C)S1(=O)=O 7.77%
Cc1ccc(-n2nnc(-c3nc(-c4cccs4)no3)c2N)cc1C 1.81%
COc1ccc(-c2nc(CSc3nncn4c3cc3oc(C)cc34)c(C)o2)cc1 5.46%
Cc1ccccc1NC(=O)c1ccc(F)c(S(=O)(=O)N2CCN(c3ccccc3F)CC2)c1 -10.4%
CCN1CCN(CCCNC(=O)CS(=O)(=O)Cc2nc(-c3cccc(OC)c3)oc2C)CC1 10.1%
CN(CC(=O)NCc1ccccc1)S(=O)(=O)c1ccc2[nH]c3c(c2c1)CCCC3 4.52%
Cn1cnnc1SCC(=O)Nc1ccc(C#N)cc1 2.76%
CCCc1cc(C(=O)Nc2c(C)nn(Cc3c(Cl)cccc3Cl)c2C)no1 -3.48%
Cc1cc(C)c(S(=O)(=O)Nc2ccc(-c3ccc(N4CCCCCC4)nn3)cc2)c(C)c1 -14.2%
O=S(=O)(NCC(c1cccs1)S(=O)(=O)c1ccccc1)c1ccc(F)c(C(F)(F)F)c1 (centres undefined) -20%
COc1ccc(-c2[nH]c(-c3cccc(OC)c3)nc2SCC(=O)NC2CCCC2)cc1 -9.41%
COc1ccccc1N1CCN(c2ncnc3c2cnn3-c2cccc(Cl)c2)CC1 -14.7%
CC(C)(C)C1CCc2c(sc(NC(=O)c3ccc(Cl)cc3)c2C(=O)NCc2ccco2)C1 (centres undefined) 2.2%
CCc1ccccc1NC(=O)C1(C)Cc2ccccc2C(=O)O1 (centres undefined) -14.8%
CC(C)(C)OC(=O)N1CCC(c2c(C(=O)NCCc3ccccc3)cnn2-c2ccc(F)cc2)CC1 -2.14%
O=C(C1CCN(S(=O)(=O)c2ccc(Br)s2)CC1)N1CCN(c2ccccc2)CC1 4.05%
CC(C)[C@H](C(=O)Nc1ccc(C(=O)NO)cc1)c1ccccc1 -24.6%
CCN(CC)S(=O)(=O)c1ccc(C(=O)N2CC(=O)Nc3ccc(F)cc3C2c2ccccc2)cc1 (centres undefined) 1.11%
CCc1ccc(-c2nn(CC(=O)NCc3ccccc3)c3c2cnc2ccc(F)cc23)cc1 -1.77%
CC(=O)N1c2ccc(S(=O)(=O)NCC3CCC(C(=O)Nc4cc(C)ccc4C)CC3)cc2CC1C (centres undefined) -21.9%
COc1cc(NC(=O)c2c(C)oc3c2C2=NCCN2C=N3)cc(OC)c1OC -18.9%
CC(=O)Nc1ccc2nc(SCCOc3cc(C)cc(C)c3)sc2c1 -7.94%
CN(C)c1ccc(/C=C(\C#N)c2nc(-c3ccc(Cl)c(Cl)c3)cs2)cc1 3.95%

outcome, inactive:
Cc1ccc(NC(=O)C2CCCN(S(=O)(=O)c3c(C)noc3C)C2)cc1 (centres undefined)
Cc1cc(C)c(/C=C/c2onc(C)c2S(=O)(=O)N2CCC(C(=O)NCCc3ccccc3)CC2)c(C)c1
CCOc1cc(C#N)c(-n2nnc3c(sc4nc(C)cc(C)c43)c2=O)cc1OCC
Cc1cccc(N(CC(=O)NCCSCc2ccccc2)S(=O)(=O)c2ccccc2)c1C
CCCC(=O)N1CCN(c2nc3ccc(F)cc3s2)CC1
Cc1nc(N2CCCC2)c2c(C(=O)N3CCN(c4cc(Cl)ccc4C)CC3)c(C)oc2n1
COc1cc(OC)c(NC(=O)c2cc3c(=O)oc4ccc(C)cc4c3s2)cc1Cl
CCOc1ccc(NC(=O)Cn2c(=O)n(-c3cccc(Cl)c3)c(=O)c3c2c2cc(C)ccc2n3C)cc1
COc1ccc(NC(=O)Cn2c(=O)n(CCc3ccccc3)c(=O)c3c4c(sc32)CCCC4)cc1
Cc1ccc(N2C(=O)CSC23C(=O)N(Cc2ccccc2F)c2ccccc23)cc1F (centres undefined)
Cc1ccccc1NC(=O)c1ccc2[nH]c(C)c(C)c2c1
COc1cc(NC(=O)CC2C(=O)OCCN2Cc2ccccc2)cc(OC)c1 (centres undefined)
CCC(CC)c1nn2c(=O)cc(COc3ccc(NC(=O)c4ccccc4C)cc3)nc2s1
CCc1nn2c(-c3ccccc3OC)ccnc2c1-c1ccccc1
O=C(CCCCn1c(=O)c2ccccc2n(CC(=O)Nc2cccc(C(F)(F)F)c2)c1=O)NCc1ccc2c(c1)OCO2
Cc1c(Cl)cccc1NC(=O)Cn1c(=O)n(Cc2ccco2)c(=O)c2sc3ccccc3c21
CCCc1nn2c(=O)cc(COC(=O)c3cccc(NC(=O)c4cccs4)c3)nc2s1
COc1ccc(OC)c(CCNC(=O)c2ccc3c(c2)c(C)c(C)n3Cc2ccccc2)c1
O=C(NCCc1ccccc1)C(=O)NCC(c1ccco1)S(=O)(=O)c1cccs1 (centres undefined)
Cc1ccc(Cl)cc1NC(=O)COC(=O)CC(C)(C)CC1=NS(=O)(=O)c2ccccc2N1
Cc1oc2ncnc(N3CCCCC3)c2c1C(=O)NCC1CCN(Cc2cccc(F)c2)CC1
CCOC(=O)c1[nH]c2ccccc2c1NC(=O)c1ccccc1F
COC(=O)c1ccc(OCC2c3cc(OC)c(OC)cc3CCN2C(=O)Cc2ccccc2)cc1 (centres undefined)
COc1ccc(-c2cn3nc(N4CCCC(C(=O)Nc5cc(C)cc(C)c5)C4)sc3n2)cc1 (centres undefined)
COc1ccc(OCC(=O)NCc2ccc3c(c2)CCN3C(=O)c2ccc(F)cc2)cc1
COc1ccc(CCN2C(=O)NC(NS(=O)(=O)c3ccc(NC(C)=O)cc3)(C(F)(F)F)C2=O)cc1OC (centres undefined)
COc1cc(NC(=O)COCc2cc(-c3ccc4c(c3)OCO4)on2)cc(OC)c1
